Among the data in the CheMixHub viscosity set are viscosity values, retold here.

± gives the uncertainty stated by the source. For part of its entries the source gives two or more results. The other results are left out here. An entry can have further records. The values listed for one entry are repeated measurements in other runs, samples, wells, individuals or studies. Marks in square brackets tell the records apart. The letters are not those of the source and start again with each entry.

Consider `CCCCCCC`, for which the viscosity reads like this: (298.15 K, 101 kPa) 0.3845 ± 0.015 mPa·s [study A] and 0.39 ± 0.004 mPa·s [study B] and 0.3942 ± 0.004 mPa·s [study C] and 0.3855 ± 0.01 mPa·s [study D]; (298.15 K, 101.33 kPa) 0.4022 ± 0.0039 mPa·s [study A] and 0.387 ± 0.012 mPa·s [study B] and 0.3865 ± 0.0058 mPa·s, 0.3865 ± 0.011 mPa·s, 0.3866 ± 0.0058 mPa·s [study C] and 0.4 ± 0.006 mPa·s [study D]; (303.15 K, 101 kPa) 0.369 ± 0.015 mPa·s [study A] and 0.364 ± 0.01 mPa·s [study B] and 0.3647 ± 0.0095 mPa·s [study C] and 0.393 ± 0.004 mPa·s [study D] and 0.388 ± 0.01 mPa·s [study E]; (308.15 K, 101 kPa) 0.347 ± 0.02 mPa·s [study A] and 0.3582 ± 0.0047 mPa·s [study B] and 0.355 ± 0.004 mPa·s [study C] and 0.3603 ± 0.0076 mPa·s [study D].

For the compound `O=[N+]([O-])c1ccccc1`, the viscosity runs as follows: (298.15 K, 101 kPa) 1.832 ± 0.048 mPa·s, 1.834 ± 0.048 mPa·s, 1.804 ± 0.048 mPa·s, 1.82 ± 0.015 mPa·s, 1.825 ± 0.017 mPa·s, 1.817 ± 0.047 mPa·s, 1.528 ± 0.012 mPa·s, 1.86 ± 0.019 mPa·s, 1.834 ± 0.023 mPa·s, 1.834 ± 0.024 mPa·s [several studies]; (298.15 K, 101.33 kPa) 1.822 ± 0.085 mPa·s, 1.763 ± 0.082 mPa·s, 1.827 ± 0.085 mPa·s [study A] and 1.873 ± 0.098 mPa·s, 1.873 ± 0.19 mPa·s [study B]; (303.15 K, 101 kPa) 1.675 ± 0.015 mPa·s [study A] and 1.7 ± 0.05 mPa·s [study B] and 1.682 ± 0.014 mPa·s [study C] and 1.639 ± 0.043 mPa·s [study D] and 1.666 ± 0.043 mPa·s [study E] and 1.646 ± 0.015 mPa·s [study F].

As for `c1ccccc1`, the viscosity by setting is: (298.15 K, 101.33 kPa) 0.582 ± 0.005 mPa·s [study A] and 0.595 ± 0.003 mPa·s [study B] and 0.5996 ± 0.016 mPa·s [study C] and 0.6059 ± 0.016 mPa·s [study D] and 0.591 ± 0.0047 mPa·s [study E] and 0.6108 ± 0.0055 mPa·s [study F]; (303 K, 101 kPa) 0.5553 ± 0.0039 mPa·s, 0.5551 ± 0.0039 mPa·s, 0.5556 ± 0.0039 mPa·s, 0.5554 ± 0.0039 mPa·s; (303.15 K, 101 kPa) 0.559 ± 0.011 mPa·s, 0.559 ± 0.006 mPa·s, 0.573 ± 0.004 mPa·s, 0.574 ± 0.007 mPa·s, 0.565 ± 0.011 mPa·s, 0.5698 ± 0.015 mPa·s, 0.573 ± 0.015 mPa·s, 0.5752 ± 0.0069 mPa·s, 0.57 ± 0.015 mPa·s, 0.572 ± 0.04 mPa·s [several studies]; (303.15 K, 101.33 kPa) 0.57 ± 0.015 mPa·s [study A] and 0.565 ± 0.006 mPa·s [study B] and 0.63 ± 0.067 mPa·s [study C] and 0.63 ± 0.017 mPa·s [study D]; (308.15 K, 101 kPa) 0.53 ± 0.01 mPa·s [study A] and 0.535 ± 0.011 mPa·s [study B] and 0.522 ± 0.006 mPa·s [study C] and 0.524 ± 0.015 mPa·s [study D] and 0.5292 ± 0.0047 mPa·s [study E] and 0.538 ± 0.0068 mPa·s [study F] and 0.537 ± 0.038 mPa·s [study G] and 0.554 ± 0.015 mPa·s [study H]; (308.15 K, 101.33 kPa) 0.4801 ± 0.0045 mPa·s [study A] and 0.517 ± 0.003 mPa·s [study B] and 0.518 ± 0.0041 mPa·s [study C] and 0.5518 ± 0.0074 mPa·s [study D] and 0.604 ± 0.065 mPa·s [study E] and 0.604 ± 0.017 mPa·s [study F]. The viscosity (313.15 K, 101 kPa) was 0.491 ± 0.009 mPa·s [study A] and 0.488 ± 0.005 mPa·s [study B] and 0.5022 ± 0.0066 mPa·s [study C] and 0.508 ± 0.011 mPa·s [study D] and 0.522 ± 0.014 mPa·s [study E]; the viscosity (313.15 K, 101.33 kPa) is 0.5391 ± 0.015 mPa·s [study A] and 0.4922 ± 0.013 mPa·s [study B] and 0.598 ± 0.064 mPa·s [study C] and 0.598 ± 0.017 mPa·s [study D]; the viscosity (318.15 K, 101 kPa) is 0.47 ± 0.01 mPa·s [study A] and 0.464 ± 0.01 mPa·s [study B] and 0.4603 ± 0.0048 mPa·s [study C] and 0.46 ± 0.005 mPa·s [study D]; the viscosity (323 K, 101 kPa) is 0.4354 ± 0.0032 mPa·s, 0.4343 ± 0.0032 mPa·s, 0.4346 ± 0.0032 mPa·s, 0.4344 ± 0.0032 mPa·s.

Take `CCCCCCCC`: the viscosity was 0.5186 ± 0.011 mPa·s [study A] and 0.53 ± 0.04 mPa·s [study B] and 0.517 ± 0.005 mPa·s [study C] and 0.517 ± 0.007 mPa·s [study D] and 0.529 ± 0.006 mPa·s [study E] (298.15 K, 101 kPa); 0.5194 ± 0.0048 mPa·s [study A] and 0.505 ± 0.004 mPa·s [study B] and 0.522 ± 0.007 mPa·s [study C] and 0.503 ± 0.008 mPa·s [study D] (298.15 K, 101.33 kPa); 0.4641 ± 0.01 mPa·s [study A] and 0.444 ± 0.013 mPa·s [study B] and 0.456 ± 0.008 mPa·s [study C] and 0.458 ± 0.004 mPa·s [study D] and 0.4684 ± 0.0081 mPa·s [study E] (308.15 K, 101 kPa); 0.453 ± 0.013 mPa·s [study A] and 0.4541 ± 0.013 mPa·s [study B] and 0.453 ± 0.011 mPa·s [study C] and 0.453 ± 0.004 mPa·s [study D] and 0.445 ± 0.007 mPa·s [study E] (308.15 K, 101.33 kPa); 0.424 ± 0.013 mPa·s [study A] and 0.429 ± 0.011 mPa·s [study B] and 0.4201 ± 0.0053 mPa·s [study C] and 0.447 ± 0.008 mPa·s [study D] and 0.456 ± 0.006 mPa·s [study E] (313.15 K, 101 kPa); 0.4201 ± 0.0053 mPa·s [study A] and 0.425 ± 0.012 mPa·s [study B] and 0.426 ± 0.012 mPa·s [study C] and 0.4295 ± 0.013 mPa·s [study D] (313.15 K, 101.33 kPa). For the same compound, the viscosity (318.15 K, 101 kPa) was 0.402 ± 0.013 mPa·s [study A] and 0.43 ± 0.04 mPa·s [study B] and 0.414 ± 0.006 mPa·s [study C] and 0.425 ± 0.0079 mPa·s [study D].

`CN(C)C=O`: the viscosity was 0.7912 ± 0.021 mPa·s, 0.802 ± 0.008 mPa·s, 0.796 ± 0.026 mPa·s, 0.8136 ± 0.021 mPa·s, 0.802 ± 0.041 mPa·s, 0.8108 ± 0.0082 mPa·s, 0.8 ± 0.1 mPa·s, 0.8 ± 0.24 mPa·s, 0.87 ± 0.02 mPa·s, 0.8 ± 0.02 mPa·s, 0.8279 ± 0.0073 mPa·s, 0.827 ± 0.018 mPa·s [several studies] (298.15 K, 101 kPa); 0.758 ± 0.016 mPa·s, 0.83 ± 0.01 mPa·s, 0.7753 ± 0.0075 mPa·s, 0.744 ± 0.01 mPa·s, 0.78 ± 0.24 mPa·s, 0.82 ± 0.02 mPa·s, 0.7779 ± 0.007 mPa·s, 0.769 ± 0.016 mPa·s, 0.771 ± 0.036 mPa·s, 0.771 ± 0.029 mPa·s, 0.771 ± 0.023 mPa·s [several studies] (303.15 K, 101 kPa); 0.7166 ± 0.019 mPa·s, 0.7116 ± 0.005 mPa·s, 0.713 ± 0.037 mPa·s, 0.7329 ± 0.0071 mPa·s, 0.709 ± 0.028 mPa·s, 0.709 ± 0.008 mPa·s, 0.924 ± 0.2 mPa·s, 0.73 ± 0.23 mPa·s, 0.78 ± 0.02 mPa·s, 0.7322 ± 0.0068 mPa·s, 0.701 ± 0.015 mPa·s [several studies] (308.15 K, 101 kPa); 0.6674 ± 0.018 mPa·s, 0.64 ± 0.01 mPa·s, 0.6401 ± 0.0065 mPa·s, 0.638 ± 0.034 mPa·s, 0.653 ± 0.0064 mPa·s, 0.617 ± 0.025 mPa·s, 0.617 ± 0.007 mPa·s, 0.72 ± 0.02 mPa·s, 0.6518 ± 0.0064 mPa·s, 0.645 ± 0.014 mPa·s [several studies] (318.15 K, 101 kPa).

As for `CCCCCO`, the viscosity is 3.51 ± 0.3 mPa·s, 3.548 ± 0.031 mPa·s, 3.548 ± 0.092 mPa·s, 3.513 ± 0.091 mPa·s, 3.37 ± 0.01 mPa·s, 3.534 ± 0.043 mPa·s, 3.412 ± 0.032 mPa·s, 3.186 ± 0.15 mPa·s, 3.51 ± 0.21 mPa·s, 3.51 ± 0.026 mPa·s [several studies] (298.15 K, 101 kPa); 3.286 ± 0.077 mPa·s [study A] and 3.421 ± 0.038 mPa·s [study B] and 3.51 ± 0.16 mPa·s [study C] and 3.421 ± 0.15 mPa·s [study D] and 3.388 ± 0.04 mPa·s [study E] (298.15 K, 101.33 kPa); 3.115 ± 0.038 mPa·s [study A] and 2.954 ± 0.035 mPa·s [study B] and 3.048 ± 0.18 mPa·s [study C] and 3.053 ± 0.12 mPa·s [study D] (303.15 K, 100 kPa); 2.727 ± 0.27 mPa·s [study A] and 2.971 ± 0.028 mPa·s [study B] and 3.052 ± 0.016 mPa·s [study C] and 2.835 ± 0.023 mPa·s [study D] (303.15 K, 101 kPa); 2.833 ± 0.066 mPa·s, 2.832 ± 0.022 mPa·s, 3.086 ± 0.069 mPa·s, 2.832 ± 0.018 mPa·s, 2.973 ± 0.053 mPa·s, 2.973 ± 0.11 mPa·s, 2.832 ± 0.033 mPa·s, 2.787 ± 0.28 mPa·s, 3.055 ± 0.12 mPa·s [several studies] (303.15 K, 101.33 kPa); 2.518 ± 0.22 mPa·s [study A] and 2.724 ± 0.025 mPa·s [study B] and 2.694 ± 0.024 mPa·s [study C] and 2.544 ± 0.079 mPa·s [study D] and 2.599 ± 0.024 mPa·s [study E] (308.15 K, 101 kPa). The viscosity was 2.441 ± 0.058 mPa·s, 2.534 ± 0.022 mPa·s, 2.689 ± 0.061 mPa·s, 2.607 ± 0.03 mPa·s, 2.607 ± 0.12 mPa·s, 2.543 ± 0.03 mPa·s, 2.518 ± 0.11 mPa·s, 2.592 ± 0.046 mPa·s, 2.592 ± 0.098 mPa·s [several studies] (308.15 K, 101.33 kPa); 2.34 ± 0.029 mPa·s [study A] and 2.301 ± 0.028 mPa·s [study B] and 2.294 ± 0.093 mPa·s [study C] and 2.338 ± 0.14 mPa·s [study D] and 2.341 ± 0.096 mPa·s [study E] (313.15 K, 100 kPa); 2.34 ± 0.14 mPa·s [study A] and 2.29 ± 0.05 mPa·s [study B] and 2.368 ± 0.022 mPa·s [study C] and 2.299 ± 0.028 mPa·s [study D] and 2.283 ± 0.021 mPa·s [study E] (313.15 K, 101 kPa); 2.344 ± 0.096 mPa·s [study A] and 2.163 ± 0.22 mPa·s [study B] and 2.344 ± 0.015 mPa·s [study C] and 2.344 ± 0.018 mPa·s [study D] and 2.299 ± 0.26 mPa·s [study E] and 2.299 ± 0.033 mPa·s [study F] and 2.344 ± 0.027 mPa·s [study G] (313.15 K, 101.33 kPa); 2.074 ± 0.019 mPa·s [study A] and 2.085 ± 0.019 mPa·s [study B] and 2.085 ± 0.054 mPa·s [study C] and 2 ± 0.01 mPa·s [study D] and 2.014 ± 0.019 mPa·s [study E] (318.15 K, 101 kPa); 1.7 ± 0.17 mPa·s [study A] and 1.765 ± 0.042 mPa·s [study B] and 1.765 ± 0.016 mPa·s [study C] and 1.304 ± 0.18 mPa·s [study D] (323.15 K, 101.33 kPa).

Turning to `ClC(Cl)=C(Cl)Cl`, the viscosity (303.15 K, 101.33 kPa) is 0.798 ± 0.007 mPa·s [study A] and 0.7976 ± 0.0058 mPa·s [study B] and 0.796 ± 0.006 mPa·s [study C] and 0.796 ± 0.022 mPa·s [study D] and 0.74 ± 0.014 mPa·s [study E].

In general, viscosity refers to the internal friction of a fluid under shear. Low values mean a thin fluid, high ones a thick fluid.
